This passage reports activation results from PubChem BioAssay AID1346428 (National Center for Advancing Translational Sciences (NCATS), 2018).

Hit rate of the full screen: of about 48,000 compounds, about 1,200 (2.5%) were called active. Inconclusive results (about 2%) are left out.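 How the source made its calls: active means activation of at least 60% and not above a set upper limit (about 1 call in 100 departs from these limits); inconclusive means activation of 40% to 60%, or above that upper limit; inactive means activation under 40%.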 This is one part of the list.

Chain of UniProt O75388 (O75388 whole entry, looked up): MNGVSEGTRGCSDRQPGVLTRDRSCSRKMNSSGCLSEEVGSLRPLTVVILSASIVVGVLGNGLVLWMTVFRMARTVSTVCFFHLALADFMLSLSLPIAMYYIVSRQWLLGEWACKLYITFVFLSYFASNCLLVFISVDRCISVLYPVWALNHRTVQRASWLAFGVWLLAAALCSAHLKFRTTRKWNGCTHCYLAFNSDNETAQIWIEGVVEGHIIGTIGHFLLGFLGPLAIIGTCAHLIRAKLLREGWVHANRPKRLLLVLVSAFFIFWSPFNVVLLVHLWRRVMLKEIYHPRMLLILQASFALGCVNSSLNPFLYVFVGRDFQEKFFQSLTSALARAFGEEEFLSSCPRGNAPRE

The test addresses Probable G-protein coupled receptor 32 (Homo sapiens) (UniProt O75388). As to the kind of experiment: qHTS for Agonists of Human Resolvin D1 Receptor DRV1. Further: 0% is about no effect. Conditions: CHO-K1 GPR32 beta-arrestin PathHunter luminescence, 90 min; at 76.9 µM; active compounds read high; zero percent set by DMSO-only wells. The essentials:
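CHO-K1 cells stably expressing ProLink-tagged GPR32 and Enzyme Activator-tagged beta-arrestin were seeded at 2,500 cells/well overnight, exposed to compounds for 90 min at 37 °C, then read by beta-Gal complementation chemiluminescence after 1 h detection reagent.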
(In general: In qHTS, concentration-response curves come from the screen itself.)
As to `CCCc1nc2c(C)cc(-c3nc4ccccc4n3C)cc2n1Cc1ccc(-c2ccccc2C(=O)O)cc1`, the activation is inactive: -18.1%. Under `Cc1ccc(C)c(NC(=O)Cn2c(=O)n(Cc3ccc4c(c3)OCO4)c(=O)c3oc4ccccc4c32)c1` stands inactive: -15.5%.

As to `CC1=C(C(N)=O)C(c2cccc(C)c2)n2nc(-c3cccc(C)c3)nc2N1` (stereo not drawn), the activation was inactive: -19.4%. `CCCCOC(=O)c1ccc(O)cc1`: the activation is inactive: -0.477%. Under `CCOC(=O)C1CCN(S(=O)(=O)c2ccc(N3CCCCS3(=O)=O)cc2)CC1` stands inactive: 4.89%; under `CC(C)C1N=C2c3ccccc3N=C(SCC(=O)NCc3ccccc3Cl)N2C1=O` (stereo not drawn), inactive: -11.4%; under `Cc1ccc(CNC(=O)c2cc(-c3ccc(C)cc3)nc3n[nH]c(-c4ccc(F)cc4)c23)cc1`, inactive: -12.7%. Next, `CCn1c(SCc2ccc(F)cc2Cl)nc(=O)c2c(C(=O)OC)cc(C3CC3)nc21`: inactive: -14.4%; `COCCCOc1cc(C[C@@H](C[C@H](N)[C@@H](O)C[C@H](C(=O)NCC(C)(C)C(N)=O)C(C)C)C(C)C)ccc1OC`: inactive: -10.1%; `CCCn1c(=O)c2sccc2n2c(CCCC(=O)Nc3ccc(Oc4ccccc4)cc3)nnc12`: inactive: -9.09%.

For `CCOc1ccc(NC(=O)Cn2c(=O)c(CNc3ccccc3)cc3cc4c(cc32)OCCO4)cc1`, the activation is inactive: -32.7%.

Turning to `CCCc1ccc(-c2ccc(C(=O)Oc3ccc(Br)cc3)cc2)nc1`, the activation was inactive: 9.97%. Under `Cc1ccc(S(=O)(=O)NCCc2nnc3ccc(SCC(=O)Nc4ccc(OC(F)(F)F)cc4)nn23)cc1` stands inactive: 6.26%; under `O=C1COc2cc(S(=O)(=O)CCC(=O)N3CCN(c4ccccc4)CC3)c(Cl)cc2N1`, inactive: 0.0192%; under `CCS(=O)(=O)c1cccc(C(=O)N2CCN(c3nc4c(C)ccc(Cl)c4s3)CC2)c1`, inactive: -0.149%. Under `CCCCCn1c(CNC(=O)c2ccc(F)cc2)nc2ccccc21` stands inactive: -13.1%; under `CN(C(=O)Cn1ncc2c1-c1ccccc1OC2)c1ccc(Br)cc1`, inactive: 7.25%; under `N=C(N)N1CCc2ccccc2C1`, inactive: -6.25%. As to `COC(=O)c1ccc(CSc2nc3c([nH]c4ccccc43)c(=O)n2-c2cc(C)cc(C)c2)o1`, the activation is inactive: -8.23%. For the compound `COc1ccc(OC)c(CCNC(=O)C(C)n2c(C)c3cnn(-c4ccccc4)c(=O)c3c2C)c1` (stereo not drawn), the activation was inactive: -14.2%. For the compound `COc1ccccc1CNS(=O)(=O)c1ccc(N2CCCCS2(=O)=O)cc1`, the activation was inactive: 8.39%. Under `O=C(Nc1ccc2c(c1)OCO2)c1cc(-c2ccc(Cl)cc2)on1` stands inactive: 10.3%; under `COc1ccccc1OCC(=O)Nc1c(C(=O)c2ccc(C)cc2)oc2ccccc12`, inactive: -1.96%; under `CN(C)C1(CNC(=O)COc2ccc(C(C)(C)C)cc2)CCCCC1`, inactive: 8.39%. On to `CCOC(=O)c1c(C)[nH]c(C)c1S(=O)(=O)N1CCC(C(=O)NCc2ccc(N(C)C)cc2)CC1`, for which the activation is inactive: -22.2%. Next, `Cc1cc(C)cc(-n2ccnc(NCc3ccc(F)cc3)c2=O)c1`: inactive: -5.73%; `COc1ccc(Cl)cc1C(=O)Nc1c2c(nn1-c1ccc(Cl)cc1)CS(=O)(=O)C2`: inactive: -1.27%; `COc1ccc(Cl)cc1NC(=O)CSc1nc(=O)[nH]c2c1CCCC2`: inactive: -0.779%. Under `COc1ccccc1NC(=O)c1oc2ccccc2c1NC(=O)COc1ccccc1OC` stands inactive: 1.01%. On to `CCOc1ccc(CNC(=O)C2=Cc3cc(Br)ccc3OC2)cc1OC`, for which the activation is inactive: 3.72%. Next, `Cc1ccc(Cn2c(=O)n(-c3ccc(C)c(C)c3)c(=O)c3c(C)c(C)sc32)cc1`: inactive: 0.0204%; `CCOc1ccc(NC(=O)Cn2cc(C(=O)c3ccccc3)c(=O)c3cc4c(cc32)OCO4)cc1`: inactive: -1.41%; `COc1cc(NC(=O)N2CCC(CN3CCc4ccccc4C3)CC2)cc(OC)c1`: inactive: -20.8%.

As to `CN(C)CCOc1ccccc1Cc1ccccc1`, the activation is inactive: 8.28%. Next, `Cc1ccc2oc(-c3ccc(NC(=O)c4cccc(F)c4)c(C)c3)nc2c1`: inactive: 8.32%; `CC(=O)N1c2c(cc(Br)cc2S(=O)(=O)NCc2ccccc2Cl)CC1C` (stereo not drawn): inactive: 20%; `COc1ccc(NC(=O)c2cc(C)nc3c2c(C)nn3-c2cccc(Cl)c2C)c(OC)c1`: inactive: -15.8%. Next, `CCOc1ccc(OCC)c(NC(=O)c2csc3c2CCCC3)c1`: inactive: -22.1%.

For the compound `Cc1ccc(-c2nnc(Nc3cccc(O)c3)c3ccccc23)cc1S(=O)(=O)N1CCCCC1`, the activation is inactive: -24.8%. Next, `COc1ccc(-n2ccn(CC(=O)Nc3ccc(C)c(C)c3)c(=O)c2=O)cc1OC`: inactive: -9.07%.

For `COc1ccc(-c2cn3c(n2)sc2cc(C(=O)Nc4ccc(F)cc4Cl)ccc23)cc1`, the activation is inactive: -8.77%. Next, `CCOc1cc2[nH]c(=O)n(CCCC(=O)NCc3ccc(OC)cc3)c(=O)c2cc1OCC`: inactive: -3.14%; `COC(=O)c1c(-c2cccs2)csc1NC(=O)c1cc(OC)c(OC)c(OC)c1`: inactive: -8.61%; `CC(C)CCNC(=O)c1nn(C)c2c1CSc1ccccc1-2`: inactive: -12.8%. Under `C=Cc1ccc(Cn2c(C(=O)O)c(CNCc3ccccc3)c3ccc(OC)cc32)cc1` stands inactive: -0.868%; under `Cc1ccc(NC(=O)C(=O)NCC(c2cccnc2)N2CCc3ccccc3C2)cc1` (stereo not drawn), inactive: -16.1%; under `CC1CCCN(S(=O)(=O)c2cc(C(=O)NCc3ccccc3Cl)n(C)c2)C1` (stereo not drawn), inactive: -7.85%. Under `Cc1ccc(F)cc1NC(=O)CCSc1nc(-c2ccco2)cc(C(F)(F)F)n1` stands inactive: -2.59%. Take `CCN(C(=O)c1cc2cc(Br)cc(OC)c2oc1=O)c1ccccc1`: the activation was inactive: -6.03%. For `COc1cccc(C2c3c(-c4ccccc4O)n[nH]c3C(=O)N2Cc2cccnc2)c1` (stereo not drawn), the activation was inactive: -13.8%.

Consider `O=S(=O)(Nc1ccc(-c2ccc(N3CCCC3)nn2)cc1)c1ccc(OC(F)(F)F)cc1`, for which the activation is inactive: 38.2%. Next, `O=C(NC1CCCCCC1)c1ccc(CS(=O)c2ccc(Br)cc2)o1` (stereo not drawn): inactive: 19.2%; `CCc1ccccc1NC(=O)Cn1c(=O)n(-c2ccc(C)c(C)c2)c(=O)c2oc3ccccc3c21`: inactive: -7.78%.
